Source: publication PMC7699638, “Ligand-induced conformational rearrangements regulate the switch between membrane-proximal and distal functions of Rho kinase 2” (Communications Biology, 2020)

Target: T1, MBP-ROCK2 (full-length ROCK2 with N-terminal MBP tag) (human, UniProt O75116 1-1388)
T1 construct: human ROCK2, residues 1-1388 (synthetic gene), in vector pONE30A; also called MBP-ROCK2 fusion protein; fusion variant; not shown: MBP, N-terminal, kept
Assay: SAXS; MBP-ROCK2 with 1.5× molar excess of GppNHp-bound RhoA; 25 mM HEPES pH 7.4, 25 °C; Rg and molecular mass from Guinier analysis
Conditions: both partners purified

T1 sequence (O75116 whole entry, the tested form may be a part): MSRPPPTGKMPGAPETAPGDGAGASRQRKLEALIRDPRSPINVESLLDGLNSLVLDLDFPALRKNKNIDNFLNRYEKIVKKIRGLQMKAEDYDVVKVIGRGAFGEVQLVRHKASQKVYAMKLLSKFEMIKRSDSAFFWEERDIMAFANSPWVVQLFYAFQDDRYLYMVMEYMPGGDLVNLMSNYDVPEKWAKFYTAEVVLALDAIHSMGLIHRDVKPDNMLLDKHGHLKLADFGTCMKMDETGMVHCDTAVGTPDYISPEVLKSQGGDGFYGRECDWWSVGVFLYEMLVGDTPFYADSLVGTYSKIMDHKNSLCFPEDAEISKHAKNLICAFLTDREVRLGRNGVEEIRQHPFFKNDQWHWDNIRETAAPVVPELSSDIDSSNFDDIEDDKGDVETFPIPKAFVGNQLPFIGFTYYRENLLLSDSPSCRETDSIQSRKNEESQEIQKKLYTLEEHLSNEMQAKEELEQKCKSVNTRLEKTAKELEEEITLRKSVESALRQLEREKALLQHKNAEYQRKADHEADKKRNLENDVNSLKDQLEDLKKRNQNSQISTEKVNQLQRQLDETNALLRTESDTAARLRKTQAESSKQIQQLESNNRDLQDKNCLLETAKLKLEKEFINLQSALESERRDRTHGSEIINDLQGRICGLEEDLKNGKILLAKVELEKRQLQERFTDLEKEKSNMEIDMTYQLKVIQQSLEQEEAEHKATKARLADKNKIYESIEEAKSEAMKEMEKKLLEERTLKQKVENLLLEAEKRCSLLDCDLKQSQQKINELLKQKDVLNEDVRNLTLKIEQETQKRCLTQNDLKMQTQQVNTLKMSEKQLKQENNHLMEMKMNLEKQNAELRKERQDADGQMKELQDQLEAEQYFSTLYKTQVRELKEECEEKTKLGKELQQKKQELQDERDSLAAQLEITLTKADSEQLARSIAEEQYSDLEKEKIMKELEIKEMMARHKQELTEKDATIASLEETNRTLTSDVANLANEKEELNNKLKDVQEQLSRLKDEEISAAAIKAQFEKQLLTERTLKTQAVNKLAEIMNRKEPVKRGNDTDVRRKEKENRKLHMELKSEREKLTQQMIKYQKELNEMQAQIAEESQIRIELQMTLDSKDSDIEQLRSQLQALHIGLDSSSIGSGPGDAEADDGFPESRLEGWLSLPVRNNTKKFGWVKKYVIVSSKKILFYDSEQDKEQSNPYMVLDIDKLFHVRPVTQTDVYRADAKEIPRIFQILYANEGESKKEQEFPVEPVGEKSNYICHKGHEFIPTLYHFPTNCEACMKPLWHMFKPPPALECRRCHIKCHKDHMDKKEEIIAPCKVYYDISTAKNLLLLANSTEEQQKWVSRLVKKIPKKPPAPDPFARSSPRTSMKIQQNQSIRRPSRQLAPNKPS

B1: RhoA ([…]), His-tagged (domain or fragment)
chain: not shown
notes: human RhoA, […] (synthetic gene), in vector pONE10K; Loaded with BODIPY-GTP in the size exclusion experiment and with GppNHp in SAXS and the activity assays; also called RhoA(GppNHp); not shown: His6, C-terminal, kept
binding result: binds
